Source: PubChem BioAssay AID504706 (National Center for Advancing Translational Sciences (NCATS), 2011)
The campaign covered roughly 320,000 compounds. About 200 (0.062%) were called active. Inconclusive results, whose numbers are uncertain, are shown with a selection of clear calls. Calls come from the whole dose curve; as a rule, active = well fitted activation curve with a large enough effect; inconclusive = small, poorly fitted or top-dose-only effect; inactive = no such curve, though single readings can be large or run the other way. No potency is given beside an inconclusive call; the fits are too rough.

Assay: qHTS assay for re-activators of p53 using a Luc reporter; note: nearly all actives have a fitted effect of over 45% in size; for activity change, positive = activation: % of control where 0% means no effect
Details: H1299 p53-A138V BP100-luciferase reporter, luminescence, 24 h; series mostly up to 92.2 µM; activity change, positive = activation: at the top concentration
Procedure, shortened: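 H1299 (p53-null), stable ts p53-A138V + BP100-Luc; 1000 cells/well, Opti-MEM/10% FBS; cpd 4 pt, 1:5; 24 h, 37 deg C, 5% CO2; detection reagent 10 min RT; luminescence.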
Potency is the fitted concentration of half-maximal effect; tags give direction and shape of the fitted curve.

Row | Structure (SMILES) | Potency | activity change, positive = activation
1 | C/C(CC(=O)NCc1ccccc1Cl)=N/NC(=O)c1ccccn1 | inconclusive [activator, partial curve, poor fit] | –
2 | c1cc[n+](CCCC[n+]2ccccc2)cc1 | inconclusive [activator, single point] | –
3 | CCCOc1ccccc1N1C(=O)CC(N(O)c2ccccc2)C1=O (stereo not given) | – | inactive: 2.87%
4 | O=S(=O)(O)c1cc2oc(-c3ccccc3)nc2c2ccccc12 | – | inactive: 10.8%
5 | COc1cc([N+](=O)[O-])ccc1NC(=S)NCc1ccccn1 | inconclusive [activator, single point] | –
6 | c1ccc(CSc2ccc(-c3ccccn3)nn2)nc1 | inconclusive [activator, partial curve, poor fit] | –
7 | CNc1nn(-c2cccc(Cl)c2)nc1N | – | inactive: 0.809%
8 | Cc1csc(NC(=O)c2cccs2)n1 | inconclusive [activator, partial curve, poor fit] | –
9 | Fc1ccccc1-c1nc(-c2ccccc2)no1 | inconclusive [activator, partial curve, poor fit] | –
10 | COC(=O)c1ccccc1OCC(=O)NC1CCCCC1 | inconclusive [activator, full curve, poor fit] | –
11 | O=S(=O)(c1cccc2nsnc12)N1CCc2ccccc2C1 | inconclusive [activator, partial curve, poor fit] | –
12 | O=C(CCc1ccccc1)NCCSCc1c(F)cccc1Cl | – | inactive: -8.6%
13 | Cc1ccc(S(=O)(=O)N2CCCCC2CCNC(=O)C(=O)NCc2ccncc2)cc1 (stereo not given) | – | inactive: -1.18%
14 | COc1ccc(Nc2ccc(S(=O)(=O)N3CCCCC3)cc2[N+](=O)[O-])cc1Cl | – | inactive: 6.99%
15 | CCN(CC)S(=O)(=O)c1ccc(C)c(NC(=S)NC2CCCCC2)c1 | – | inactive: -3.71%
16 | CCC1(C)Cc2ccccc2-c2c1c(=O)n(Cc1ccccc1)c1nnnn21 (stereo not given) | – | inactive: 18.6%
17 | Cc1ccc(NC(=S)Nc2cccc(-c3n[nH]c(=S)o3)c2)cc1 | – | inactive: 5.6%
18 | O=C(Cc1csc(-c2ccc(Cl)cc2)n1)Nc1cccc(S(=O)(=O)NC2=NCCC2)c1 | – | inactive: -5.87%
19 | CCc1ccc(N=C2N=C(N)c3ccccc32)cc1 | inconclusive [activator, full curve, poor fit] | –
20 | Cc1cc(S(=O)(=O)NC[C@H]2O[C@@H](n3cnc4c(N)ncnc43)[C@H](O)[C@@H]2O)c(C)s1 | – | inactive: -6.62%
21 | Cc1nn(-c2ccccc2)c2c1C(c1ccco1)C(C#N)=C(N)O2 (stereo not given) | inconclusive [activator, single point] | –
22 | S=C(NCc1cccs1)Nc1cc(Cl)cc(Cl)c1 | – | inactive: 4.28%
23 | CC(C)(C)C(=O)Nc1cccc(-c2nc3ccccc3[nH]2)c1 | – | inactive: 7.16%
24 | CCCC(=O)Nc1nc(-c2ccc3c(c2)OCCO3)cs1 | inconclusive [activator, partial curve, poor fit] | –
25 | S=C(NCCC1=CCCCC1)NCc1ccco1 | inconclusive [activator, partial curve, poor fit] | –

Row | Structure (SMILES) | Potency | activity change, positive = activation
26 | CN(Cc1ccccc1)C(=O)CSc1cc(=O)n(C)c2ccccc12 | inconclusive [activator, single point] | –
27 | O=c1cc(-c2ccccc2)nc2nc(SCc3ccccc3)[nH]n12 | – | inactive: 8.53%
28 | CCc1ccc(NC(=O)CC2NCCNC2=O)cc1 (stereo not given) | inconclusive [activator, single point] | –
29 | Cc1ccccc1-n1c(SCC(=O)c2c(N)n(C)c(=O)n(C)c2=O)nc2sc3c(c2c1=O)CCCC3 | – | inactive: 0.36%
30 | Cc1ccc(N2C(=O)c3ccc(N)cc3C2=O)cc1C | inconclusive [activator, full curve, poor fit] | –
31 | COc1cc2cc(CN(CCCO)S(=O)(=O)c3ccccc3Cl)c(=O)[nH]c2cc1OC | – | inactive: -5.28%
32 | CC(=O)Nc1ccc(Sc2ccccc2C(=O)O)cn1 | – | inactive: 2.44%
33 | CCOc1ccc(Oc2ccc(C(F)(F)F)cc2N)cc1 | inconclusive [activator, partial curve, poor fit] | –
34 | CCCCc1nc2cc(C(=O)N3CCCC(COC)C3)ccc2o1 (stereo not given) | inconclusive [activator, partial curve, poor fit] | –
35 | COC(=O)C1CCN(C(=O)CN(C)Cc2ccc(C(C)(C)C)cc2)CC1 | inconclusive [activator, single point] | –
36 | Cn1ccnc1-c1nc2ccccc2[nH]c1=O | inconclusive [activator, single point] | –
37 | CN(C)Cc1c(O)ccc2c(=O)c(-c3ccccc3Cl)c(C(F)(F)F)oc12 | inconclusive [activator, partial curve, poor fit] | –
38 | COc1cccc(-c2cc(C(=O)NCC3CCCO3)c3cc(C)cc(C)c3n2)c1 (stereo not given) | – | inactive: 27.9%
39 | COc1cc(/C=C2\SC(=S)NC2=O)ccc1OS(=O)(=O)c1ccccc1 | – | inactive: 20.3%
40 | Cc1ccc(-c2nc3s/c(=C\c4ccco4)c(=O)n3n2)cc1 | inconclusive [activator, single point] | –
41 | CC[C@@]1(O)C(=O)OCc2c1cc1n(c2=O)Cc2cc3c(N)cccc3nc2-1 | – | inactive: 2.56%
42 | Cc1cccc(/C(N)=N/OC(=O)Cc2cccs2)c1 | inconclusive [activator, full curve] | –
43 | O=C(NCc1ccco1)Nc1ccccc1Cl | – | inactive: 17.2%
44 | CC(Nc1nc(C(F)(F)F)nc2ccccc12)c1cccs1 (stereo not given) | inconclusive [activator, single point] | –
45 | CC(C)c1ccc(CN2CCN(S(=O)(=O)c3ccc(Cl)s3)CC2)cc1 | inconclusive [activator, partial curve, poor fit] | –
46 | CCC(C)NC(=O)c1oc2ccc(S(=O)(=O)N3CCC4(CC3)OCCO4)cc2c1C (stereo not given) | – | inactive: -7.72%
47 | C(=N/Nc1nc(-c2ccccc2)cc(-c2ccccc2)n1)/c1cccnc1 | inconclusive [activator, single point] | –
48 | COc1ccc(C)cc1NCc1cccc(OC)c1OC | – | inactive: -0.0667%
49 | Cc1cccc(-n2nc([N+](=O)[O-])c(=NC3CCN(Cc4ccccc4)CC3)n2O)c1 | active: 14.1 µM | –
50 | CC(C)OCCCNC(=O)CNC(=O)c1cccs1 | inconclusive [activator, single point] | –

Row | Structure (SMILES) | Potency | activity change, positive = activation
51 | Cc1nc(N2CCN(C)CC2)[nH]c(=O)c1Cc1cccc2ccccc12 | inconclusive [activator, single point] | –
52 | Cc1ccc(S(=O)(=O)N(CC(=O)NCC2CCCO2)Cc2cccc(C)c2)cc1 (stereo not given) | – | inactive: -7.12%
53 | COc1ccccc1NS(=O)(=O)c1cc(NC(C)=O)ccc1N1CCCCC1 | – | inactive: -4.18%
54 | C/C(=C\c1ccccc1)C(=O)Nc1nc2ccc([N+](=O)[O-])cc2s1 | inconclusive [activator, single point] | –
55 | CN(C)S(=O)(=O)c1cccc(C(=O)Nc2ccccc2)c1 | inconclusive [activator, single point] | –
56 | CN(C)C(=O)c1ccc2c(c1[N+](=O)[O-])C(=O)c1ccccc1C2=O | inconclusive [activator, partial curve, poor fit] | –
57 | N#Cc1ccccc1OCC(=O)OCC(=O)c1ccc[nH]1 | – | inactive: -8.42%
58 | COc1ccc(-c2nnc3c4ccccc4c(C)nn23)cc1 | inconclusive [activator, partial curve, poor fit] | –
59 | Cn1c(/C=N/n2cnnc2)nc2ccccc21 | inconclusive [activator, full curve, poor fit] | –
60 | c1ccc2c(c1)nnn1c3ccccc3nc21 | inconclusive [activator, partial curve, poor fit] | –
61 | COc1ccc(Cl)cc1NC(=O)CN(C)C(=O)c1ccc(C)s1 | – | inactive: -9.96%
62 | COc1ccc(NC(=S)N/C(=N/CS(=O)(=O)c2ccccc2)c2ccccc2)cc1 | inconclusive [activator, partial curve, poor fit] | –
63 | O=C(c1ccc(-c2ccccc2)cc1)N1CCN(c2ccccc2)CC1 | inconclusive [activator, partial curve, poor fit] | –
64 | COC(=O)C(Cc1ccc(OC(=O)c2ccccc2C)cc1)N1Cc2ccccc2C1=O (stereo not given) | inconclusive [activator, partial curve, poor fit] | –
65 | CCOCCCNC(=S)NNC(=O)CCn1nc(C)c(Br)c1C | – | inactive: -0.271%
66 | Cc1sc(NC(=O)/C=C/C(=O)O)c(C(N)=O)c1-c1ccc(C(C)(C)C)cc1 | – | inactive: 4.84%
67 | Cc1cc(C)nc(SCC(=O)Oc2ccc3oc(=O)cc(C)c3c2)n1 | inconclusive [activator, full curve, poor fit] | –
68 | COc1ccc(OCC(=O)N/N=C/c2ccc(N(C)C)cc2)cc1 | – | inactive: 9.5%
69 | COc1ccc(C(=O)n2nc(C)c(Br)c2C)cc1 | inconclusive [activator, single point] | –
70 | OC(COc1ccccc1Cl)CN1CCN(CC(O)COc2ccccc2Cl)CC1 (stereo not given) | – | inactive: 7.47%
71 | Cc1[nH]n(C)c(=O)c1C(=O)c1c(-c2c(Cl)cccc2Cl)noc1C | inconclusive [activator, partial curve, poor fit] | –
72 | Cc1ccccc1Cc1c(C)nc2nc(SCC(=O)NCc3ccco3)nn2c1C | inconclusive [activator, partial curve, poor fit] | –
73 | Cc1cc(=O)n2[nH]c(-c3cccnc3)nc2n1 | – | inactive: -5.2%
74 | CC(/C=N/NC(=O)Cc1cccs1)=C\c1ccccc1 | inconclusive [activator, partial curve, poor fit] | –
75 | CCN1CCN(S(=O)(=O)c2ccc(Cl)c(C(=O)Nc3ccccc3N3CCCCC3)c2)CC1 | – | inactive: -0.187%
